From the supplement of paper PMC4604168 (melanoma cell lines)
This is one part of the list. Most values come without repeats; read them as rough.

What follows are molecules tested on A2058 (assay: cell count relative to DMSO control; melanoma cells; higher = more viable cells). Settings: library dose: low library concentration; 72 h.
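Note: cell number obtained by counting DAPI-stained nuclei in high-throughput microscope images with image analysis software, screen run in 1,536-well plates.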

| SMILES | cell count |
| --- | --- |
| C=C(c1ccc(C(=O)O)cc1)c1cc2c(cc1C)C(C)(C)CCC2(C)C [Bexarotene] + Cn1cc(/C=C2\C(=O)Nc3cccnc32)c2ccccc21 [GW441756] (first compound 2 µM, partner dose 0.4 µM) | 115% |
| NC1(c2ccc(-c3nc4ccn5c(=O)[nH]nc5c4cc3-c3ccccc3)cc2)CCC1 + CC(C)CCN1c2nc(Nc3cc(F)c(O)c(F)c3)ncc2N(C)C(=O)C1C [BID1870] (first compound 0.4 µM, partner dose 0.2 µM) | 102% |
| CS(=O)(=O)c1ccc(C(=O)Nc2ccc(Cl)c(-c3ccccn3)c2)c(Cl)c1 [vismodegib] + N#Cc1c(O)c2c(-c3ccc(-c4ccccc4O)cc3)csc2[nH]c1=O [A769662] (first compound 1 µM, partner dose 2 µM) | 108% |
| CN(c1ncccc1CNc1nc(Nc2ccc3c(c2)CC(=O)N3)ncc1C(F)(F)F)S(C)(=O)=O + COC(=O)c1sccc1S(=O)(=O)Nc1ccc(Nc2ccccc2)cc1OC [GSK0660] (first compound 0.08 µM, partner dose 1 µM) | 79.2% |
| CCCS(=O)(=O)Nc1ccc(F)c(C(=O)c2c[nH]c3ncc(Cl)cc23)c1F + COC(=O)c1sccc1S(=O)(=O)Nc1ccc(Nc2ccccc2)cc1OC [GSK0660] (first compound 0.08 µM, partner dose 1 µM) | 95.5% |
| NC1(c2ccc(-c3nc4ccn5c(=O)[nH]nc5c4cc3-c3ccccc3)cc2)CCC1 + COc1cc(N2CCC(N3CCN(C)CC3)CC2)ccc1Nc1ncc(Cl)c(Nc2ccccc2S(=O)(=O)C(C)C)n1 [NVP-TAE684] (first compound 0.4 µM, partner dose 0.08 µM) | 95.4% |
| CS(=O)(=O)c1ccc(C(=O)Nc2ccc(Cl)c(-c3ccccn3)c2)c(Cl)c1 [vismodegib] + CCN(CC)CCCCNc1ncc2cc(-c3cc(OC)cc(OC)c3)c(NC(=O)NC(C)(C)C)nc2n1 [PD173074] (first compound 1 µM, partner dose 0.1 µM) | 84.2% |
| CCCS(=O)(=O)Nc1ccc(F)c(C(=O)c2c[nH]c3ncc(Cl)cc23)c1F + N#Cc1c(O)c2c(-c3ccc(-c4ccccc4O)cc3)csc2[nH]c1=O [A769662] (first compound 0.08 µM, partner dose 2 µM) | 100% |
| CCCS(=O)(=O)Nc1ccc(F)c(C(=O)c2c[nH]c3ncc(Cl)cc23)c1F + COc1ccc2c(c1)CCC1C2CCC2(C)C(NCCCCCCN3C(=O)C=CC3=O)CCC12 [U73122] (first compound 0.08 µM, partner dose 0.4 µM) | 112% |
| CN(c1ncccc1CNc1nc(Nc2ccc3c(c2)CC(=O)N3)ncc1C(F)(F)F)S(C)(=O)=O + O=S(=O)(c1ccccc1)N(CC(F)(F)F)c1ccc(C(O)(C(F)(F)F)C(F)(F)F)cc1 [T0901317] (first compound 0.08 µM, partner dose 1.4 µM) | 82.8% |
| CCCS(=O)(=O)Nc1ccc(F)c(C(=O)c2c[nH]c3ncc(Cl)cc23)c1F + O=C1NC(=O)/C(=C/c2ccc(-c3ccc(F)cc3O)o2)S1 [AS252424] (first compound 0.08 µM, partner dose 1 µM) | 101% |
| NC1(c2ccc(-c3nc4ccn5c(=O)[nH]nc5c4cc3-c3ccccc3)cc2)CCC1 + COc1cc2ncnc(Nc3ccc(Oc4ccccc4)cc3)c2cc1OC [SrcI1] (first compound 0.4 µM, partner dose 2 µM) | 96.3% |
| C=C(c1ccc(C(=O)O)cc1)c1cc2c(cc1C)C(C)(C)CCC2(C)C [Bexarotene] + COc1cc2ncnc(Nc3ccc(Oc4ccccc4)cc3)c2cc1OC [SrcI1] (first compound 2 µM, partner dose 2 µM) | 111% |
| C=C(c1ccc(C(=O)O)cc1)c1cc2c(cc1C)C(C)(C)CCC2(C)C [Bexarotene] + O=S(=O)(c1ccccc1)N(CC(F)(F)F)c1ccc(C(O)(C(F)(F)F)C(F)(F)F)cc1 [T0901317] (first compound 2 µM, partner dose 1.4 µM) | 98.2% |
| C=C(c1ccc(C(=O)O)cc1)c1cc2c(cc1C)C(C)(C)CCC2(C)C [Bexarotene] + Oc1cc(-c2nc(-c3ccccc3)[nH]c2-c2ccncc2)ccc1Cl [L779450] (first compound 2 µM, partner dose 0.2 µM) | 116% |
| CN(c1ncccc1CNc1nc(Nc2ccc3c(c2)CC(=O)N3)ncc1C(F)(F)F)S(C)(=O)=O + COc1ccc2c(c1)CCC1C2CCC2(C)C(NCCCCCCN3C(=O)C=CC3=O)CCC12 [U73122] (first compound 0.08 µM, partner dose 0.4 µM) | 75.8% |
| CCCS(=O)(=O)Nc1ccc(F)c(C(=O)c2c[nH]c3ncc(Cl)cc23)c1F + CCCCCCCCCCCC1=C(O)C(=O)C=C(O)C1=O [Embelin] (first compound 0.08 µM, partner dose 1.2 µM) | 105% |

| SMILES | cell count |
| --- | --- |
| CN(c1ncccc1CNc1nc(Nc2ccc3c(c2)CC(=O)N3)ncc1C(F)(F)F)S(C)(=O)=O + Oc1nc(-c2ccc(C(F)(F)F)cc2)nc2c1CSCC2 [XAV939] (first compound 0.08 µM, partner dose 2 µM) | 93.4% |
| NC1(c2ccc(-c3nc4ccn5c(=O)[nH]nc5c4cc3-c3ccccc3)cc2)CCC1 + COc1ccc2c(c1)CCC1C2CCC2(C)C(NCCCCCCN3C(=O)C=CC3=O)CCC12 [U73122] (first compound 0.4 µM, partner dose 0.4 µM) | 88.2% |
| C=C(c1ccc(C(=O)O)cc1)c1cc2c(cc1C)C(C)(C)CCC2(C)C [Bexarotene] + O=C1NC(=O)/C(=C/c2ccc(-c3ccc(F)cc3O)o2)S1 [AS252424] (first compound 2 µM, partner dose 1 µM) | 99.8% |
| CN(c1ncccc1CNc1nc(Nc2ccc3c(c2)CC(=O)N3)ncc1C(F)(F)F)S(C)(=O)=O + COc1cc(N2CCC(N3CCN(C)CC3)CC2)ccc1Nc1ncc(Cl)c(Nc2ccccc2S(=O)(=O)C(C)C)n1 [NVP-TAE684] (first compound 0.08 µM, partner dose 0.08 µM) | 78.9% |
| CN(c1ncccc1CNc1nc(Nc2ccc3c(c2)CC(=O)N3)ncc1C(F)(F)F)S(C)(=O)=O + O=c1cc(-c2cccc3c2Sc2ccccc2S3)oc(N2CCOCC2)c1 [KU55933] (first compound 0.08 µM, partner dose 1 µM) | 85% |
| CN(c1ncccc1CNc1nc(Nc2ccc3c(c2)CC(=O)N3)ncc1C(F)(F)F)S(C)(=O)=O + N#Cc1c(O)c2c(-c3ccc(-c4ccccc4O)cc3)csc2[nH]c1=O [A769662] (first compound 0.08 µM, partner dose 2 µM) | 90.7% |
| CCCS(=O)(=O)Nc1ccc(F)c(C(=O)c2c[nH]c3ncc(Cl)cc23)c1F + Oc1cc(-c2nc(-c3ccccc3)[nH]c2-c2ccncc2)ccc1Cl [L779450] (first compound 0.08 µM, partner dose 0.2 µM) | 108% |
| NC1(c2ccc(-c3nc4ccn5c(=O)[nH]nc5c4cc3-c3ccccc3)cc2)CCC1 + O=C(O)C(=O)Nc1sc2c(c1C(=O)O)CCNC2 [TCS401] (first compound 0.4 µM, partner dose 1.66667 µM) | 97.1% |
| CN(c1ncccc1CNc1nc(Nc2ccc3c(c2)CC(=O)N3)ncc1C(F)(F)F)S(C)(=O)=O + Cn1cc(/C=C2\C(=O)Nc3cccnc32)c2ccccc21 [GW441756] (first compound 0.08 µM, partner dose 0.4 µM) | 78.6% |
| CS(=O)(=O)c1ccc(C(=O)Nc2ccc(Cl)c(-c3ccccn3)c2)c(Cl)c1 [vismodegib] + COc1cc2ncnc(Nc3ccc(Oc4ccccc4)cc3)c2cc1OC [SrcI1] (first compound 1 µM, partner dose 2 µM) | 95.3% |
| NC1(c2ccc(-c3nc4ccn5c(=O)[nH]nc5c4cc3-c3ccccc3)cc2)CCC1 + COc1ccc(-c2ccc3c(N4CCOCC4)nc(N4C[C@@H](C)O[C@@H](C)C4)nc3n2)cc1CO [KU0063794] (first compound 0.4 µM, partner dose 0.02 µM) | 104% |
| CN(c1ncccc1CNc1nc(Nc2ccc3c(c2)CC(=O)N3)ncc1C(F)(F)F)S(C)(=O)=O + O=C1NC(=O)/C(=C/c2ccc(-c3ccc(F)cc3O)o2)S1 [AS252424] (first compound 0.08 µM, partner dose 1 µM) | 97.1% |
| CS(=O)(=O)c1ccc(C(=O)Nc2ccc(Cl)c(-c3ccccn3)c2)c(Cl)c1 [vismodegib] + COc1ccc(COc2ccc(Cc3cnc(N)nc3N)cc2OC)cc1 [GW2580] (first compound 1 µM, partner dose 1 µM) | 107% |
| CS(=O)(=O)c1ccc(C(=O)Nc2ccc(Cl)c(-c3ccccn3)c2)c(Cl)c1 [vismodegib] + COc1ccc2c(c1)CCC1C2CCC2(C)C(NCCCCCCN3C(=O)C=CC3=O)CCC12 [U73122] (first compound 1 µM, partner dose 0.4 µM) | 88.1% |
| NC1(c2ccc(-c3nc4ccn5c(=O)[nH]nc5c4cc3-c3ccccc3)cc2)CCC1 + Cn1cc(/C=C2\C(=O)Nc3cccnc32)c2ccccc21 [GW441756] (first compound 0.4 µM, partner dose 0.4 µM) | 79.6% |
| C=C(c1ccc(C(=O)O)cc1)c1cc2c(cc1C)C(C)(C)CCC2(C)C [Bexarotene] + O=C(Nc1ccccc1)c1cc([N+](=O)[O-])ccc1Cl [GW9662] (first compound 2 µM, partner dose 2 µM) | 107% |
